# Assay results published in article PMC4336329 (PLoS ONE, 2015).
# Hit rate of the full screen: of about 310,000 compounds, about 14,000 (4.5%) showed an effect of 50% or more. The effect is printed as a negative number. Some of the results follow.
# Target: human ether-à-go-go-related gene (hERG) potassium channel (human, UniProt Q12809)
# Assay: primary screen, population patch clamp on CHO cells stably expressing hERG
# 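Also: peak tail current of the secondary pulse compared with the same well before compound.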
# Sequence of human ether-à-go-go-related gene (hERG) potassium channel (Q12809 whole entry, looked up): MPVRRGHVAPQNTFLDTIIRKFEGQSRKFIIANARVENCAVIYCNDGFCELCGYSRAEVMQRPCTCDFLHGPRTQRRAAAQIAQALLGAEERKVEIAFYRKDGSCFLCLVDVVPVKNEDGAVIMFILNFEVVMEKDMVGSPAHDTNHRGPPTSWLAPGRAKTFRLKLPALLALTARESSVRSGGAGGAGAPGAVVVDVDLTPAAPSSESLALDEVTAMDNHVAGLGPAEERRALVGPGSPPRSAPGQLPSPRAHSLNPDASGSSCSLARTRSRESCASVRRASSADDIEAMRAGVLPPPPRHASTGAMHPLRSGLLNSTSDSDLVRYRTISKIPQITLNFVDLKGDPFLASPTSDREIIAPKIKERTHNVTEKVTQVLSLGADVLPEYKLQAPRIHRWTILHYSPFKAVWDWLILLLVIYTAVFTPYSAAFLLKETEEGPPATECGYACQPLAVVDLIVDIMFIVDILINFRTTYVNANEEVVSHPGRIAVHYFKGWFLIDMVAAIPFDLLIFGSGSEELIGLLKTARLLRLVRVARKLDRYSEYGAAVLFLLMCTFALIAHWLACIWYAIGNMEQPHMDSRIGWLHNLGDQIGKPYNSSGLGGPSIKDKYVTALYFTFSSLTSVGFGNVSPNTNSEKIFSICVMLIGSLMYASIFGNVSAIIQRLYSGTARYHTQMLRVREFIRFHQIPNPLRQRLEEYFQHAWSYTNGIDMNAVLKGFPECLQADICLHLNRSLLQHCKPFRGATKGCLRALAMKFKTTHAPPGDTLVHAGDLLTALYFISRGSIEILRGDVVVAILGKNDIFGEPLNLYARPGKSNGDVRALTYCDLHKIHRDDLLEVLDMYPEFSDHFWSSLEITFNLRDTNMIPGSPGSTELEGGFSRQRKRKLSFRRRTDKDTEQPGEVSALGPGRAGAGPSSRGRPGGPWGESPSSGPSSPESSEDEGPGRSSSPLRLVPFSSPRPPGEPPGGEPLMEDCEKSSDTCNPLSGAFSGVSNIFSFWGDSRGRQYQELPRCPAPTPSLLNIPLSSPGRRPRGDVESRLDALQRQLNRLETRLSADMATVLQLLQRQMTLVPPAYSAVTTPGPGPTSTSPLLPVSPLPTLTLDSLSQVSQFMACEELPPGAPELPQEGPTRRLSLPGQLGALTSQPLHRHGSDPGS
row,SMILES,"hERG current change (%, negative = inhibition) at 10uM"
1,CC1CCC2(CC1)NC(=O)N(NC(=O)c1cc3ccccc3o1)C2=O (stereo not drawn),15.6%
2,CCc1c(C2(O)CCCCC2)[nH]c2cc(C(F)(F)F)ccc12,-4.27%
3,Cc1ccccc1NC(=O)N1CCCC(c2nc(-c3ccc(C(C)C)cc3)no2)C1 (stereo not drawn),-12.3%
4,Cc1nnc(-c2ccc(Cl)cc2)nc1NCCN(C)C,-38.9%
5,OC(c1ccccn1)c1c[nH]c2ccccc12 (stereo not drawn),15%
6,OC1(C#Cc2c(-c3ccsc3)oc3ccc(N4CCOCC4)cc23)CCCCC1,14.1%
7,CCCCn1c(=O)[nH]c(=O)c2c1nc(-c1ccc(OCCC)c(OCC)c1)n2C,2.05%
8,CCCCCc1nc(-c2nonc2N)no1,14.3%
9,COc1cc(OC)c(N(C)S(=O)(=O)c2cccc(C(=O)OCc3c(C)noc3C)c2)cc1Cl,16.4%
10,O=C(c1ccc(OC2CCN(Cc3ccccn3)CC2)cc1)N1CCCCCC1,-14.9%
11,Cc1ccc(S(=O)(=O)NCc2ccc(C(=O)N3CCN(c4ccccn4)CC3)cc2)cc1,-33.6%
12,CC1=C2C3OC(=O)C(C)C3CC[C@@]2(C)C=CC1=O (stereo partly drawn),3.23%
13,O=C(Nc1ccc(N2CCOCC2)cc1)c1cccc2c(Br)cccc12,8.6%
14,Cl.O=C(Nc1ccccc1)OCC(CN1CCCCC1)OC(=O)Nc1ccccc1 (stereo not drawn),-60.1%
15,Clc1ccc(/C=N/NC(=Nc2ccccc2)c2ccccn2)c(Cl)c1,-2.69%
16,Cc1ccc2ccc(S(=O)(=O)n3nc(C)cc3C)cc2c1,4.49%
17,CCOc1ccc(S(=O)(=O)N2CCN(C(=S)NC3CC3)CC2)cc1,-21.3%
18,COc1cc(OC)c(C(=S)N2CCCC2)cc1OC,-19.8%
19,CC(C)Sc1nnc(Cn2c(=O)sc3ccccc32)n1-c1ccccc1,0.741%
20,C=CCNC(=O)C(=O)NCC(c1ccc2c(c1)OCO2)N1CCOCC1 (stereo not drawn),16.7%
21,CC(=O)N1CCN(Cc2nc3scc(-c4ccccc4)c3c(=O)[nH]2)CC1,-9.96%
22,CC(Sc1nnc(-c2ccccc2)c(-c2ccccc2)n1)C(=O)Nc1ncc(Cl)cc1Cl (stereo not drawn),-4.28%
23,O=C(COc1ccccc1)NNc1nc2ccccc2s1,-12.2%
24,Cc1ccc(NC(=O)c2ccc(CNc3c(N4CCOCC4)c(=O)c3=O)cc2)cc1,-1.09%
25,Cc1ccc(NC(=O)CSC2=C(C#N)C(c3ccco3)CC(=O)N2)cc1 (stereo not drawn),-3.4%
26,C=CCn1c(SCC(=O)N2CC(C)OC(C)C2)nnc1-c1ccncc1 (stereo not drawn),12.5%
27,COc1cc(-c2ncc3ccccn23)cc(OC)c1OC.O=C(O)C(=O)O,7.76%

row,SMILES,"hERG current change (%, negative = inhibition) at 10uM"
1,Cc1ccc(C)c(S(=O)(=O)N2CCN(C(=O)CCC(=O)c3cc(C)sc3C)CC2)c1,-27.9%
2,CC1CC(C)CN(c2ccc(S(=O)(=O)N3CCOCC3)cc2)C1 (stereo not drawn),-0.0723%
3,COc1ccc(C(C(=O)NC2CCCCC2)N(C(=O)c2ccco2)c2ccc(-n3cnnn3)c(C)c2)cc1 (stereo not drawn),8.93%
4,COc1ccc(/C=C(\NC(=O)c2ccccc2)C(=O)N/N=C/c2sccc2C)cc1,-2.46%
5,N#Cc1ccc(OCC(=O)N(C2CCCCC2)C2CCS(=O)(=O)C2)cc1 (stereo not drawn),-50.1%
6,COCCn1c(SCC(=O)Nc2cc(C)nn2-c2ccccc2)nnc1-c1ccncc1,-37.7%
7,COc1ccc2ccccc2c1/C=N/NC(=O)c1cc(C)[nH]n1,-0.221%
8,COc1ccc(OCC(=O)N2CCN(C(=O)COc3ccc(Br)cc3)CC2)cc1,-71.9%
9,Cc1nc(N2CCN(C)CC2)c2cc(-c3ccccc3)sc2n1,-18.7%
10,O=C(Nc1cccc([N+](=O)[O-])c1)c1ccc2c(c1)C(=O)N(c1ccccn1)C2=O,-41.5%
11,CCc1ccccc1NC(=O)CC1CS(=O)(=O)CC1CC(=O)Nc1ccccc1CC (stereo not drawn),12.1%
12,Nn1c(SCc2ccccc2F)nnc1-c1cccnc1,29.5%
13,N#Cc1c(N)n(CCCN2CCOCC2)c2nc3ccccc3nc12,-29.4%
14,COc1ccc(/C=C/C(=O)c2cc(F)ccc2OC(=O)c2ccc(OC)c(OC)c2)cc1OC,-7.09%
15,N#CC1=C(N)Oc2n[nH]c(-c3cccs3)c2C1c1ccoc1 (stereo not drawn),-6.01%
16,CCOC(=O)N1CCC(N2C(=O)c3ccccc3C2Nc2cccnc2)CC1 (stereo not drawn),1.81%
17,Cc1c(OC(C)C(=O)N2C[C@H]3C[C@@H](C2)c2cccc(=O)n2C3)ccc2c3c(c(=O)oc12)CCC3 (stereo partly drawn),0.0759%
18,CC(=O)Nc1ccc(C(=O)N(C)c2ccccc2)cc1,12.4%
19,Cc1cc(C)c(S(N)(=O)=O)c(C)c1N(C)S(=O)(=O)c1ccccc1,-21.2%
20,COc1ccc(Cl)c(NC(=O)NCCN2CCN(c3ccccc3)CC2)c1,5.63%
21,COc1cc(C(=O)Oc2cc(N)n(S(=O)(=O)c3ccccc3)n2)cc(OC)c1OC,11.3%
22,CC(CN1CCCCC1)OC(=O)c1ccc(Cl)cc1.Cl (stereo not drawn),-36.4%
23,CC(=O)Nc1ccc(NC(=O)COC(=O)Cc2c[nH]c3ccccc23)cc1,10.2%
24,CCc1ccc(N(C(=O)Cc2cccs2)C(C(=O)NC2CCCCC2)c2cn(C)nc2C)cc1 (stereo not drawn),-21.4%
25,Nc1ncnc2c1ncn2[C@@H]1O[C@@H]2COP(=O)([O-])O[C@H]2[C@H]1O.[Na+],-22.7%
26,COc1ccc(Cl)cc1NS(=O)(=O)c1cccc(C(=O)NCC(C)(C)N2CCOCC2)c1,-12.6%
27,Cc1occc1C(=O)NC(C)C12CC3CC(CC(C3)C1)C2 (stereo not drawn),-0.651%
